This is one part of the list. These are further read-outs of the screen, such as a control signal, another cell line or another target. No call is given for them.

This passage reports activity change, negative = inhibition results from PubChem BioAssay AID1745853 (National Center for Advancing Translational Sciences (NCATS), 2022).

What all share (test): Primary Screen for Target Class Profiling of Small Molecule Inhibitors of Methyltransferases
Test [1] concerns the target Glycine N-methyltransferase (Homo sapiens) (UniProt Q14749). As to conditions: purified enzyme, MTase-Glo SAH luminescence; measured here: GNMT inhibition; at 40 µM; stronger effect = lower value. Summed up:
(§1)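 Each enzyme was assayed with SAM and its substrate. SAH formation detected by MTase-Glo luminescence; single-point 40 uM screen[…].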

For test [2], the target named is Guanidinoacetate N-methyltransferase (Homo sapiens) (UniProt Q14353). To be noted: purified enzyme, MTase-Glo SAH luminescence; measured here: GAMT inhibition; at 40 µM; stronger effect = lower value. Summed up:
as §1

Test [3] has as its target Histamine N-methyltransferase (Homo sapiens) (UniProt P50135). As to conditions: purified enzyme, MTase-Glo SAH luminescence; measured here: HNMT inhibition; at 40 µM; stronger effect = lower value. Summed up:
as §1

The target of test [4] is Nicotinamide N-methyltransferase (Homo sapiens) (UniProt P40261). To be noted: purified enzyme, MTase-Glo SAH luminescence; measured here: NNMT inhibition; at 40 µM; stronger effect = lower value. In outline:
as §1

Test [5] concerns the target Phenylethanolamine N-methyltransferase (Homo sapiens) (UniProt P11086). To be noted: purified enzyme, MTase-Glo SAH luminescence; measured here: PNMT inhibition; at 40 µM; stronger effect = lower value. In outline:
as §1
On the % scale 0 is the no-effect control and ±100 the full control effect.

As to `Cc1ccc(Cn2c(=O)c3ccccc3n3c(=O)n(Cc4cccc(Cl)c4)nc23)cc1`, the activity change, negative = inhibition in test [1] was -1.59%; in test [2], 4.18%; in test [3], 1.48%; in test [4], -2.97%; in test [5], -1.29%.

With `O=C(CCc1nnc2n(Cc3ccc(F)cc3)c(=O)c3ccccc3n12)N1CCN(c2ccccc2F)CC1`, the activity change, negative = inhibition in test [1] is -1.43%; in test [2], 3.74%; in test [3], 6.19%; in test [4], -13.9%; in test [5], -2.95%.

For `CCCN1C(=O)c2cc3ccccc3n2CC1(C)C(=O)NCCC(C)C` (stereo not given), the activity change, negative = inhibition in test [1] amounted to 5.39%; in test [2], 0%; in test [3], 4.93%; in test [4] it was 10.4%; in test [5], 4.84%.

`O=C(N[C@H]1C[C@@H]2OCC[C@H]12)c1cccc(-n2cnnc2)n1`: the activity change, negative = inhibition in test [1] was -3.37%; in test [2], -4.77%; in test [3] it was -2.3%; in test [4], -9.2%; in test [5], -6.15%.

Take `C[C@H](N)C(=O)N[C@@H](Cc1ccc(O)cc1)C(=O)N1CCC[C@H]1C(=O)NCC(=O)N[C@@H](CCCCN)C(=O)N[C@@H](Cc1ccccc1)C(N)=O`: the activity change, negative = inhibition in test [1] is 6.68%; in test [2] it was 4.74%; in test [3], 10.6%; in test [4], -4.23%; in test [5], 5.48%.

Take `Cc1ccc(C)c(Cn2nc3n(CCCOC(C)C)c(=O)c4ccccc4n3c2=O)c1`: the activity change, negative = inhibition in test [1] was -0.985%; in test [2], 7.69%; in test [3], 7.69%; in test [4], -7.55%; in test [5], 2.28%.

As for `COC(=O)c1cc2n(n1)CC(C)(C(=O)NC1CCC(C)CC1)N(CCc1ccc(Cl)cc1)C2=O` (stereo not given), the activity change, negative = inhibition in test [1] was found to be 3.86%; in test [2], 2.05%; in test [3], 5.6%; in test [4], 3.76%; in test [5] it was 7.17%.

As to `CCOC(=O)c1ccc(N2C(=O)CSc3c(c4ccccc4n3C)C2C(=O)NCc2ccc(F)cc2)cc1` (stereo not given), the activity change, negative = inhibition in test [1] stood at 0.394%; in test [2], 0%; in test [3], 7.24%; in test [4] it was 6.17%; in test [5], 2.49%.

On to `CC(C)Oc1ccc(CNC(=O)c2ncn3c2C(=O)N(C2CC2)C(C)(C(=O)NCc2ccccc2)C3)cc1` (stereo not given), for which the activity change, negative = inhibition in test [1] is -1.15%; in test [2], -4.88%; in test [3] it was 4.04%; in test [4], -1.58%; in test [5] it was -2.9%.

In the case of `Cc1cc(C)cc(NC(=O)CSc2nnc3n(CCC(C)C)c(=O)c4ccccc4n23)c1`, the activity change, negative = inhibition in test [1] was 2.85%; in test [2], 0%; in test [3], 7.71%; in test [4], -4%; in test [5], 2.44%.

As to `Cn1c(=O)n(C)c2cc(S(=O)(=O)NCCO)ccc21`, the activity change, negative = inhibition in test [1] is -2.99%; in test [2], 2%; in test [3], -0.01%; in test [4], 3.5%; in test [5], -5.78%.

`Cc1ccc(CNC2CN(C(=O)OC(C)(C)C)C2)nc1`: the activity change, negative = inhibition in test [1] is -1.21%; in test [2], -3.9%; in test [3] it was 0.753%; in test [4], -7.48%; in test [5], 10.4%.

Consider `Cc1nc(N=Nc2ccc(S(=O)(=O)O)cc2S(=O)(=O)O)c(COP(=O)(O)O)c(C=O)c1O`, for which the activity change, negative = inhibition is 5.86% in test [1]; 12.8% in test [2]; 10.3% in test [3]; -3.17% in test [4]; 1.74% in test [5].

As to `CCCN1C(=O)c2c(C(=O)NCCc3cccs3)ncn2CC1(C)C(=O)NCc1ccc(F)cc1` (stereo not given), the activity change, negative = inhibition was found to be 0.913% in test [1]; 0.063% in test [2]; 0.68% in test [3]; 2.79% in test [4]; 7.85% in test [5].

Turning to `Cc1cc(C)cc(NC(=O)Cc2ccc(OC(C)(C)C(=O)O)cc2)c1`, the activity change, negative = inhibition in test [1] is -3.88%; in test [2], -22%; in test [3] it was 5%; in test [4] it was -31.1%; in test [5] it was -3.83%.

Turning to `Cn1ccnc1C(=O)N1CCCCCNC(=O)[C@H]2C[C@H](C(=O)N3CCc4ccccc4C3)C[C@H]21`, the activity change, negative = inhibition is -2.22% in test [1]; -1.04% in test [2]; -2.42% in test [3]; -0.521% in test [4]; -2.89% in test [5].

In the case of `CCCCC[C@H](CC(=O)NO)C(=O)N[C@H](C(=O)N1CCC[C@H]1CO)C(C)C`, the activity change, negative = inhibition in test [1] was 8.97%; in test [2], 10.2%; in test [3] it was 12.9%; in test [4], -5.46%; in test [5], 3.91%.

In the case of `Cc1ccc(NS(=O)(=O)c2cc3c(cc2Cl)n(C)c(=O)n3C)cc1F`, the activity change, negative = inhibition in test [1] worked out at 14.6%; in test [2], 0%; in test [3], 11.3%; in test [4] it was 7.13%; in test [5], 7.03%.

As to `O=C(c1c2c(nc3ccccc13)CCCC2)N1CCCC(c2nc(C3CCOCC3)no2)C1` (stereo not given), the activity change, negative = inhibition in test [1] was -7.6%; in test [2], -7.2%; in test [3], -4.61%; in test [4], -8.18%; in test [5], -4.54%.

Take `CCC(NC(=O)CC(NC(=O)C(CO)NC(=O)C(CC)NC(=O)c1ccc[nH]1)c1ccccc1)C(=O)O` (stereo not given): the activity change, negative = inhibition in test [1] is 4.42%; in test [2], 8.8%; in test [3], 8.17%; in test [4], -4.67%; in test [5], 6.89%.

As to `Cc1ccc2c(c1)c1c(n2CCc2ccc(C)nc2)CCN(C)C1`, the activity change, negative = inhibition in test [1] was 2.6%; in test [2], -11.6%; in test [3], -54.7%; in test [4] it was -49.1%; in test [5], -7.27%.

Turning to `CCc1nnc([C@@H]2CC(F)(F)CN2C(=O)c2occc2C)o1`, the activity change, negative = inhibition was -4.08% in test [1]; -10.4% in test [2]; -3.35% in test [3]; -13.3% in test [4]; -8.6% in test [5].

With `CCOC(=O)c1cc2n(n1)CC(C)(C(=O)NC1CCCC1)N(c1ccc(OC)cc1OC)C2=O` (stereo not given), the activity change, negative = inhibition was found to be 5.77% in test [1]; 0.801% in test [2]; 2.67% in test [3]; 3.46% in test [4]; 5.13% in test [5].

On to `Nc1ncnc2c1ncn2C1CCCC1`, for which the activity change, negative = inhibition in test [1] was -3.19%; in test [2] it was 6.99%; in test [3], 1.77%; in test [4], -9.76%; in test [5] it was -8.84%.

Consider `CN(Cc1nc(-c2ccccc2)no1)C(=O)c1cccc(C2CCNC2)c1` (stereo not given), for which the activity change, negative = inhibition is -1.65% in test [1]; -0.539% in test [2]; -9.63% in test [3]; 0.034% in test [4]; 3.53% in test [5].

As for `COc1cccc(CN2C[C@@H](CO)[C@H](NC(=O)C3CCC3)C2)c1`, the activity change, negative = inhibition was -5.13% in test [1]; -4.2% in test [2]; -2.39% in test [3]; -4.99% in test [4]; -3.1% in test [5].

Consider `CCOCCCNC(=O)c1cc2n(n1)CC(C)(C(=O)NC1CCCCCC1)N(C)C2=O` (stereo not given), for which the activity change, negative = inhibition in test [1] is 6.82%; in test [2], 0.215%; in test [3], 2.32%; in test [4], 7.49%; in test [5], 1.76%.

Turning to `CCN(C1CCOCC1)C1CN(C(=O)c2ccnn2C)C1`, the activity change, negative = inhibition was -0.773% in test [1]; 2.8% in test [2]; 3.02% in test [3]; -2.73% in test [4]; -0.796% in test [5].

Take `CC(=O)Nc1ccc(CN2CC[C@@H](c3ccc4c(c3)OCO4)[C@H](O)C2)cc1`: the activity change, negative = inhibition in test [1] was -2.63%; in test [2], -1.36%; in test [3], -2.44%; in test [4] it was -3.24%; in test [5], -4.71%.
